Assay results as given in the RNAGym collection of RNA variant scans (doi:10.1101/gad.245936.114).
This sample is rich in variants without activity.

B1: tRNA (parent)
chain: CUCUCGGUAGCCAAGUUGGUUUAAGGCGCAAGACUUUAAUUUAUCACUACGAAAUCUUGAGAUCGGGCGUUCGACUCGCCCCCGGGAGAUUUUUUCCUCGAGCAA

Variants of: B1
Test: nonsense suppression (GFP-seq) (ratio to wild type); higher = more function; SUP4oc tRNA, yeast GFP reporter sort-seq
Method in brief: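 Yeast carrying genome-integrated SUP4oc tRNA variants from a library with ~3% random mutations were grown in raffinose/galactose medium with 80 mg/L adenine. Each strain also carried a galactose-driven GFP ochre reporter and RFP. Cells were sorted into GFP/RFP bins, and each bin was Illumina-sequenced (phred ≥30). Nonsense suppression (GFPSEQ) is the bin median GFP/RFP, weighted by each variant's estimated cell share per bin, relative to wild-type SUP4oc; variants needed ≥100 reads and ≥30 cells.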

Point of comparison: A9U A54U, nonsense suppression 0.222. Against it:
- A9G U70A G86C — lower, ≤ 0.026
- A9G U76G C80G — lower, ≤ 0.026
- A9G U76G G86C — lower, ≤ 0.026
- A9U A14C A30G — lower, ≤ 0.026
- A9U A14C G69U C83G G84A — lower, ≤ 0.026
- A9U A14G — lower, ≤ 0.026
- A9U A14G G26C — lower, ≤ 0.026
- A9U A14G U16G C27A — lower, ≤ 0.026
- A9U A23G — lower, ≤ 0.026
- A9U A23G A54C G69U G85C — lower, ≤ 0.026
- A9U A23U — lower, ≤ 0.026
- A9U A23U C27A G84C — lower, ≤ 0.026
- A9U A23U C29G U63C U70C — lower, ≤ 0.026
- A9U A24C C79U — lower, ≤ 0.026
- A9U A24C U58G A62C G85U G88A — lower, ≤ 0.026
- A9U A24U A89C — lower, ≤ 0.026
- A9U A30G G69A — lower, ≤ 0.026
- A9U A31G A60C C81A — lower, ≤ 0.026
- A9U A31G C80A — lower, ≤ 0.026
- A9U A31U G67A G85U A89G — lower, ≤ 0.026
- A9U A33U C81U A87G — lower, ≤ 0.026
- A9U A33U G85C — lower, ≤ 0.026
- A9U A54C G69A U71G — lower, ≤ 0.026
- A9U A74U C80A — lower, ≤ 0.026
- A9U C11G A30G C80G — lower, ≤ 0.026
- A9U C11G C68A — lower, ≤ 0.026
- A9U C11U A23C A24G A33U G61C A89G — lower, ≤ 0.026
- A9U C11U C27U A31G G69U — lower, ≤ 0.026
- A9U C11U G28C G32C G88U — lower, ≤ 0.026
- A9U C11U G32C C34G A54U — lower, ≤ 0.026
- A9U C12A G73A — lower, ≤ 0.026
- A9U C12G G15A G88C — lower, ≤ 0.026
- A9U C12G U35G C72A — lower, ≤ 0.026
- A9U C12U A14C A33C — lower, ≤ 0.026
- A9U C12U A30U C68U C81G — lower, ≤ 0.026
- A9U C12U U16C U57G A62G — lower, ≤ 0.026
- A9U C29A A30C U63G — lower, ≤ 0.026
- A9U C29U A31U — lower, ≤ 0.026
- A9U C34A — lower, ≤ 0.026
- A9U C34A C56A C72A — lower, ≤ 0.026
- A9U C34G A54G — lower, ≤ 0.026
- A9U C64G G69U — lower, ≤ 0.026
- A9U C68A U76C C82A — lower, ≤ 0.026
- A9U C77U C82A — lower, ≤ 0.026
- A9U C82G — lower, ≤ 0.026
- A9U G10A G61A — lower, ≤ 0.026
- A9U G10C C11G A33G U76C G88A — lower, ≤ 0.026
- A9U G10C C75G G85A A87C — lower, ≤ 0.026
- A9U G10U A14U U22C G59A — lower, ≤ 0.026
- A9U G15A — lower, 0.0449
- A9U G15A U20G — lower, ≤ 0.026
- A9U G15C U20C A30U A33G U57G C81G — lower, ≤ 0.026
- A9U G15C U22A — lower, ≤ 0.026
- A9U G15U A30U A31G G69U G86C — lower, ≤ 0.026
- A9U G15U G19U C82G — lower, ≤ 0.026
- A9U G15U U16G A31U C34U C75U C82A — lower, ≤ 0.026
- A9U G19C C72G — lower, ≤ 0.026
- A9U G19C G25U C29U G65U U76C — lower, ≤ 0.026
- A9U G25A A30U — lower, ≤ 0.026
- A9U G25C U55G U58C G61A — lower, ≤ 0.026
- A9U G25U — lower, ≤ 0.026
- A9U G25U A54U G61C U63A G85A — lower, ≤ 0.026
- A9U G25U A62G — lower, ≤ 0.026
- A9U G26U — lower, ≤ 0.026
- A9U G26U G65C — lower, ≤ 0.026
- A9U G28A C75U — lower, 0.0978
- A9U G28C A33G — lower, ≤ 0.026
- A9U G32C A62C U76C C79U — lower, ≤ 0.026
- A9U G32C A62G — lower, ≤ 0.026
- A9U G32U — lower, ≤ 0.026
- A9U G32U A74C — lower, ≤ 0.026
- A9U G59A U76A — lower, ≤ 0.026
- A9U G61A G88U — lower, ≤ 0.026
- A9U G61C — lower, 0.197
- A9U G61U — higher, 0.573
- A9U G65A C82A — lower, ≤ 0.026
- A9U G65A G67A C72A — lower, ≤ 0.026
- A9U G66U — lower, ≤ 0.026
- A9U G67C G86C — lower, ≤ 0.026
- A9U G69U U76C — lower, ≤ 0.026
- A9U G73A — lower, 0.0814
- A9U G84A — lower, 0.138
